Experimental data from the supplement of paper PMC3334620.
Whole data set: some 33,000 sequences, median “E-score (-0.5 to 0.5)” near -0.054, cut for the highest 2% near 0.39. The list shows a part of the results.

These sequences were tested against Ylr278c (UniProt Q05854) (assay: PBM E-score (8-mer binding enrichment) (E-score (-0.5 to 0.5)); higher = stronger / more preferred TF binding; most listed sequences are background and not binding sites). Conditions: protein concentration: 200 nM; construct: GST-DNA-binding domain.
Description: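 Universal 'all 10-mer' protein binding microarrays (Agilent AMADID 015681) probed with GST-tagged S. cerevisiae TFs (full-length or DBD) made by in vitro transcription/translation (PURExpress), about 100-200 nM. Bound TF was detected with fluorescent anti-GST. Each ungapped 8-mer (which stands for itself and its reverse complement) is scored by the PBM enrichment score (E-score), a modified Wilcoxon-Mann-Whitney statistic from -0.5 to +0.5, computed with the Universal PBM Analysis Suite. Scale: above 0.35 generally sequence-specific binding.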

| Sequence | PBM E-score |
| --- | --- |
| ACCCCTCA | 0.0179 |
| TCGCGGCA | 0.239 |
| CCTACGGC | 0.0908 |
| CACGACTG | -0.138 |
| ATGCGATC | -0.0372 |
| CATTAATC | 0.0504 |
| GGAGGTCA | 0.0301 |
| AGGACCAT | -0.121 |
| GATCATAA | -0.0101 |
| AAACATAC | -0.137 |
| AGTCCTAC | -0.0571 |
| CGAGCTAC | -0.0114 |
| TACGGTCA | 0.0722 |
| AGGTTGCG | -0.271 |
| ACCGTTGC | 0.118 |
| CTAATAGC | -0.191 |
| AAATAGGC | 0.142 |
| ATGTCAAG | -0.19 |
| AGTATGGG | -0.24 |
| TAAATGGA | 0.0153 |
| GAAGACCC | -0.0933 |
| CCCAAATA | -0.0778 |
| GAGGCGCA | 0.119 |
| AAGTGCGC | 0.152 |
| GTATAAAC | 0.0178 |

| Sequence | PBM E-score |
| --- | --- |
| CATAAGAA | -0.0489 |
| GGAGCCTA | 0.207 |
| GCGAACCA | -0.0272 |
| CCACGCAG | -0.0875 |
| ATGAAAGG | -0.0718 |
| AATTATAA | 0.0424 |
| TACCTTGA | -0.0479 |
| ATACCGAT | 0.202 |
| TAAGAAGA | 0.13 |
| AAAGATGC | -0.226 |
| ACCATACT | -0.2 |
| CGACTCCC | 0.0244 |
| TCCCCCCA | -0.243 |
| CAAATGAA | -0.106 |
| AATCCTAG | -0.0703 |
| GCCTTGAA | -0.222 |
| GCGGTTTA | 0.0277 |
| ATGCGATA | -0.0857 |
| ATGCGAGG | -0.152 |
| CCCGCAGA | 0.286 |
| AAAACCCC | 0.265 |
| TCTACACA | -0.186 |
| AAGTTCCA | -0.173 |
| ATAGTTTG | -0.0573 |
| CAAGGGCC | -0.0977 |

| Sequence | PBM E-score |
| --- | --- |
| AGCCACGC | -0.149 |
| AAATTGCC | 0.15 |
| GAGGCTCC | 0.1 |
| TAAAGTTA | -0.0394 |
| CCGCGACC | 0.199 |
| ATGGCTCC | -0.0569 |
| CCCGGTCG | 0.317 |
| AGCTAGAA | -0.26 |
| AGCTGAGA | -0.168 |
| CAGCAACG | 0.0188 |
| GGACGACC | -0.0661 |
| AAACGTTC | -0.254 |
| CTACCCCA | -0.0217 |
| CTGATCTA | -0.159 |
| AGCAGCGG | 0.101 |
| ACCGCTCT | -0.0365 |
| GAGACCGC | 0.0415 |
| CGCTTGTC | 0.0596 |
| GTGCTGTA | -0.157 |
| CATGAATC | -0.111 |
| AATCGTAA | -0.0979 |
| CCAGCATC | -0.0271 |
| GATAAAAC | 0.202 |
| TACCCGGA | 0.395 |
| CCGAGTCA | 0.219 |

| Sequence | PBM E-score |
| --- | --- |
| CCAATGGC | -0.0621 |
| AGTCAGCC | -0.158 |
| AGGAGTGG | -0.11 |
| CACTAGGC | -0.035 |
| CACCAAAA | -0.104 |
| AACACTGC | 0.0737 |
| ACTACGGA | 0.316 |
| ATTCAAGC | 0.00141 |
| TCTGGTCA | -0.187 |
| CAATCATA | -0.0563 |
| TAAGGGCA | -0.144 |
| ACCAGGGC | -0.178 |
| ATCGGTAG | 0.144 |
| ATAAAGAA | -0.0262 |
| AATACCAT | -0.00946 |
| GGAAGACA | -0.062 |
| TAGTCATA | -0.145 |
| AAAAGGTA | -0.077 |
| ACTCCGAA | 0.484 |
| CATGTAAA | -0.194 |
| ACTATTAG | 0.0518 |
| CAGGCTGG | -0.0868 |
| CTAATCCC | 0.155 |
| AAGCACAC | -0.17 |
| ATCCCGGC | 0.391 |

| Sequence | PBM E-score |
| --- | --- |
| CTATCGGA | 0.444 |
| AAAGCGCG | 0.0763 |
| CTAGACCC | -0.0706 |
| TGTTTCAA | -0.0571 |
| ATTTCCGA | 0.446 |
| GCAATATA | 0.00065 |
| AAGTCTGC | -0.288 |
| AAACAGCA | 0.0669 |
| AACAAAGA | -0.0953 |
| CTGGAGTA | -0.0695 |
| CTGTGCGA | -0.261 |
| CGTGAGTC | -0.141 |
| GCTACGGA | 0.212 |
| CAACACGC | -0.182 |
| CGCCCATC | -0.0254 |
| AGACTTCG | -0.137 |
| ACGCCTAA | -0.116 |
| ACCCCCAA | -0.126 |
| AAACCTCC | 0.147 |
| AGTTCTGC | 0.0212 |
| ACTAATAA | -0.0291 |
| CGCGTACG | 0.22 |
| CGATCTAG | -0.179 |
| ACTCCGAT | 0.484 |
| ATGGGCTC | -0.102 |

| Sequence | PBM E-score |
| --- | --- |
| AGACCTTG | -0.323 |
| CAAGCTTC | -0.198 |
| ACGGAACA | 0.27 |
| ACCGGCTG | 0.189 |
| CTTACTGC | 0.0718 |
| ACCGCGAA | 0.315 |
| GCGACGTA | -0.0854 |
| CATACCCC | 0.114 |
| GTTATCAA | -0.231 |
| CCAATAAC | -0.00737 |
| GGTCATAC | 0.0686 |
| GCCCCTCA | -0.0143 |
| AACGTGAA | -0.175 |
| ATCAGCGA | -0.00871 |
| CTTATGGA | -0.2 |
| ATCGATCG | -0.0315 |
| ATGATGGA | -0.0123 |
| AATAGCTC | -0.176 |
| CGACACGC | -0.0207 |
| GGCTAACC | -0.102 |
| GCTCGTCA | -0.249 |
| AAACTAAA | -0.0975 |
| ACAGCTAC | -0.256 |
| CTAATGTA | -0.0864 |
| GAAGAAAC | 0.0261 |

| Sequence | PBM E-score |
| --- | --- |
| ATAACGCA | -0.226 |
| GTAGGTAA | -0.066 |
| TAACCACA | -0.136 |
| CCGGAAAG | 0.319 |
| CATCGCTA | -0.166 |
| TGTAAACA | -0.202 |
| CGGGAAAG | 0.284 |
| ACGGTCAT | 0.143 |
| CTCTGACC | -0.148 |
| CTTCTGTC | -0.0596 |
| ACATGTAC | 0.00176 |
| CGCATTTC | 0.233 |
| GCATACCA | -0.0385 |
| ACCCCCGA | 0.261 |
| ACCCATGA | -0.136 |
| ACGGATGC | 0.167 |
| TGGATCAA | -0.264 |
| CCAAATCA | -0.195 |
| GGACGTAA | 0.12 |
| GGGAACTA | 0.11 |
| CACGGAGC | 0.403 |
| GGCTCCAA | -0.0143 |
